Test results taken from the supplement of paper PMC9433436.
± gives the standard deviation of the averaged measurements. The full ranking holds about 4,100 sequences; the median of “relative kcat/Km (krel) vs genomic leader AAAGAU” is about 1.7, and the highest 2% start at about 6.5. Only a part is listed here, and it is no random draw.

Molecular target: T1, E. coli RNase P holoenzyme (M1 P RNA + rnpA protein) (UniProt P0A7Y8)
T1 sequence: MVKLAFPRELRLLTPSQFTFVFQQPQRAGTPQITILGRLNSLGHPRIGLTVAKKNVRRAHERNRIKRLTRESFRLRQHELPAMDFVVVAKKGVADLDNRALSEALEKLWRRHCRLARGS
Test: relative kcat/Km (krel) vs genomic leader AAAGAU (relative (reference leader = 1)); higher = faster RNase P cleavage
Method in brief: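 Relative kcat/Km (krel) values came from internal competition kinetics on sequencing read ratios, normalised to the genomic leader and averaged over two technical replicates. A precursor tRNA-Met pool with randomized leader positions −6 to −1 was cleaved by E. coli RNase P holoenzyme (P RNA plus C5 protein) under multiple-turnover conditions at 37 °C. The buffer held 50 mM Tris-HCl pH 8, 100 mM NaCl and 17.5 mM MgCl2, and unreacted precursor was gel-purified at ~5–30% conversion, made into cDNA libraries and Illumina-sequenced.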

[1] = fraction of substrate reacted: ~9-10% (9.79% repeat 1, 9.1% repeat 2)
[2] = fraction of substrate reacted: ~13-16% (15.68% repeat 1, 13.17% repeat 2)
[3] = fraction of substrate reacted: ~26-29% (28.66% repeat 1, 26.4% repeat 2)

Sequence | relative kcat/Km [1] | relative kcat/Km [2] | relative kcat/Km [3]
CACTGT | 1.07 ± 0.037 | 0.947 ± 0.35 | 1.51 ± 1.1
GTGCGC | 1.02 ± 0.27 | 0.935 ± 0.55 | 1.09 ± 0.13
GGCGGA | 0.884 ± 0.18 |  | 0.846 ± 0.087
ACCTGG |  | 0.57 ± 0.51 | 0.814 ± 0.66
TACGAG |  | 1.58 ± 0.12 | 3.95 ± 1.1
ACGCTT | 2.26 ± 1.3 | 1.75 ± 0.037 | 2.37 ± 0.48
CGCAAG | 1.46 ± 0.29 |  | 2.65 ± 0.79
TGACCC | 1.17 ± 0.58 | 1.43 ± 0.08 | 2.4 ± 0.75
TATTGT | 0.735 ± 0.4 |  | 
CAGTGG | 0.302 ± 0.14 |  | 0.408 ± 0.26
GCCAGA | 2.6 ± 2 | 2.26 ± 0.32 | 5.56 ± 1.6
CGGTGG |  |  | 0.504 ± 0.058
GGGAGC | 1.09 ± 0.46 | 0.558 ± 0.31 | 1.57 ± 0.53
GTGTTT | 1.1 ± 0.71 | 1.047 ± 0.0059 | 1.58 ± 0.46
GTAGAG | 0.308 ± 0.012 |  | 1.61 ± 0.57
ACGTAA | 3.08 ± 0.62 | 3.67 ± 0.69 | 4.77 ± 1.8
ACCACT |  | 0.207 ± 0.16 | 2.06 ± 0.71
TTCGGT |  |  | 3.02 ± 2.2
TAGGAA | 1.43 ± 0.52 | 1.98 ± 0.13 | 2.09 ± 1.2
GCAATC |  | 1.31 ± 0.5 | 1.5 ± 0.14
AGCAAG |  | 0.819 ± 0.47 | 1.88 ± 0.14
GCCGTT | 1.32 ± 0.54 | 1.13 ± 0.51 | 1.97 ± 0.41
GTAGGC |  |  | 2.05 ± 1.9
AACTTT | 3.39 ± 1.9 | 3.57 ± 0.39 | 4.58 ± 1.3
CAAGCT | 1.48 ± 1.3 | 0.905 ± 0.4 | 1.37 ± 0.37
CATTCT | 2.79 ± 1.2 | 3.18 ± 0.076 | 4.94 ± 2
TCCCCT | 3.28 ± 1.2 | 3.35 ± 0.21 | 4.76 ± 1.9

Sequence | relative kcat/Km [1] | relative kcat/Km [2] | relative kcat/Km [3]
TAGATA | 2.17 ± 1.9 | 1.51 ± 0.61 | 1.57 ± 0.091
TATACG |  | 0.461 ± 0.31 | 1.68 ± 0.28
CAACGT |  |  | 1.63 ± 1.3
ACGTCG | 0.568 ± 0.2 | 0.215 ± 0.19 | 1.77 ± 0.74
TTATGC | 3.22 ± 0.63 | 4.29 ± 0.74 | 6.16 ± 2.8
CTTAAA | 2.84 ± 0.53 | 3.1 ± 0.059 | 4.16 ± 1.7
CTCCTT | 3.67 ± 1.4 | 4.28 ± 0.77 | 6.06 ± 2.3
GGAACC | 1.31 ± 0.59 | 0.943 ± 0.18 | 1.19 ± 0.1
TGGCCC | 1.09 ± 0.3 | 1.02 ± 0.47 | 0.704 ± 0.26
TGTCTA | 1.53 ± 0.11 | 2.45 ± 0.35 | 3.36 ± 1.4
GCAACA |  | 0.326 ± 0.15 | 0.512 ± 0.39
ACTGTG |  |  | 0.633 ± 0.34
GACTTG |  | 1.11 ± 0.46 | 2.5 ± 0.16
CTGGGC | 0.978 ± 0.65 |  | 
CGTACC |  | 1.08 ± 0.15 | 2.06 ± 0.55
TAACTT | 2.28 ± 0.99 | 2.24 ± 0.28 | 2.7 ± 1
GGAGAC | 2.08 ± 1.6 | 1.75 ± 0.35 | 2.59 ± 0.3
GTGAAA | 1.27 ± 0.4 | 1.73 ± 0.38 | 2.56 ± 0.8
TGGATA | 0.452 ± 0.072 |  | 0.938 ± 0.49
AATCAT | 3.17 ± 2 | 2.88 ± 0.24 | 4.38 ± 1.7
GAGACT | 0.969 ± 0.47 | 0.865 ± 0.66 | 1.65 ± 0.52
TTCCCC | 3.49 ± 1.7 | 4.17 ± 0.71 | 5.59 ± 1.9
TGGGGC | 0.418 ± 0.024 |  | 1.58 ± 1.6
TCCGAG | 2.34 ± 0.033 | 2.52 ± 1.4 | 5.01 ± 2.2
AGATGC | 2.42 ± 0.73 | 2.8 ± 0.16 | 3.74 ± 0.99
CGCGCT | 1.66 ± 0.52 | 0.984 ± 0.065 | 1.71 ± 0.53
AAGGAA |  | 1.09 ± 0.62 | 0.94 ± 0.12
